From ChEMBL document CHEMBL1201862, “PubChem BioAssay data set” (2004) come the findings set out here.

Values joined by “and” are separate entries in the source; they are usually repeats but may differ in a detail not shown here. Identical values can stand only once.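 Grown in 96-well plates, cells were treated for 48 hours with each compound at five concentrations. Insufficient inhibition: endpoint recorded as highest concentration tested. The concentration for 50% growth inhibition is given as GI50.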 Active and inactive are the calls of the source. Rule as the data show it: active = GI50 up to about 1.1 µM and inactive = higher.

This experiment deals with NCI-H322M. Description: inhibition of tumour cell growth, NCI panel, 48 h.
With `Cc1cc(O)c(C(C)C)cc1NC(=O)Nc1cccc2ccccc12`, the GI50 was inactive: 15.5 µM.

As for `O=c1c2ccccc2sc2c(CO)ccc(NCCN3CCCCC3)c12`, the GI50 was inactive: 3.27 µM.

Turning to `Cc1ccc2c(C)c3ccc4ccccc4c3c[n+]2c1.[O-][Cl+3]([O-])([O-])[O-]`, the GI50 was inactive: 13.9 µM.

Turning to `CCOC(=O)Cc1csc(NC(NC(=O)OCC)(C(=O)OCC)C(F)(F)F)n1` (centres undefined), the GI50 was inactive: > 100 µM.

Regarding `COC(=O)C(C)(C)/N=C/N(C)C`, the GI50 is inactive: > 100 µM.

On to `CCOC(=O)CNC(=O)N(CC)C12CC3CC(CC(C3)C1)C2`, for which the GI50 was inactive: 171 µM.

Regarding `O=C1C=C(NCC(c2ccccc2)c2ccccc2)C(=O)c2ncccc21`, the GI50 is inactive: 1.69 µM.

`C/C(=N/CC(=O)O)c1ccccc1`: the GI50 is inactive: > 100 µM.

`CCOC(=O)CN1C(=O)c2cc([N+](=O)[O-])cc3cc([N+](=O)[O-])cc(c23)C1=O`: the GI50 is inactive: > 100 µM.

As for `NC(=O)N/N=C1\CCCCc2ccccc21`, the GI50 is inactive: > 10 µM.

In the case of `CC(C)OCN1COCN/C1=N/C#N`, the GI50 is inactive: > 100 µM.

Regarding `COc1ccc2nc(-c3ccccc3)cc(OCC(=O)O)c2c1`, the GI50 is inactive: > 100 µM.

On to `COc1cc(C2=N/C(=C/c3cccs3)C(=O)O2)cc(OC)c1OC`, for which the GI50 is inactive: > 100 µM.

As for `[N-]=[N+]=NC1OC(=O)C(Cl)=C1N=P(c1ccccc1)(c1ccccc1)c1ccccc1` (centres undefined), the GI50 is inactive: > 10 µM.

For the molecule `O=C(O)/C=C/n1c2ccccc2c(=O)c2ccccc21`, the GI50 is inactive: > 100 µM.

Regarding `Cc1cn([C@H]2C[C@@H](N3C(=O)c4ccccc4C3=O)[C@@H](CO[Si](C)(C)C(C)(C)C)O2)c(=O)[nH]c1=O`, the GI50 was inactive: > 100 µM.

On to `Cc1ccc(NC(=O)C(=O)C2C(=O)C3=C(CC2(C)C)NC2C=CC=CC2S3)c(C)c1` (centres undefined), for which the GI50 was inactive: > 100 µM.

Consider `O=[N+]([O-])C1(CO)COC(CCc2ccccc2)OC1` (centres undefined), for which the GI50 was inactive: > 100 µM.

`N/N=C1/CCCc2nonc21`: the GI50 was inactive: > 100 µM.

For the molecule `C#CCCCC(=C)C[C@@H]1OC(=O)[C@H](C)[C@@H]1O`, the GI50 was inactive: > 100 µM.

`CC1C2CC(C/C2=N/O)C1(C)C` (centres undefined): the GI50 is inactive: > 100 µM.

With `N=C(N)SC1c2ccccc2-c2cc([N+](=O)[O-])ccc21` (centres undefined), the GI50 is inactive: 4.43 µM.

As for `O=C(NNC(=S)Nc1ccccc1)c1ccccc1Nc1ccccc1C(=O)NNC(=S)Nc1ccccc1`, the GI50 is inactive: 21.5 µM.

As for `O=C1CC2SC(COCc3ccccc3)(CCN2Cc2ccccc2)C1` (centres undefined), the GI50 was inactive: 47.2 µM.

On to `N/N=c1\c2ccccc2c2cc3c(cc12)/c(=N/N)c1ccccc13`, for which the GI50 is inactive: > 100 µM.

Take `CN(C)NC(=S)NC12CC3CC(CC(C3)C1)C2`: the GI50 is inactive: > 100 µM.

`CC1(Br)C(=O)NC(=O)N(C2CC(N=[N+]=[N-])C(CO)O2)C1N=[N+]=[N-]` (centres undefined): the GI50 was inactive: > 100 µM.

Consider `CCCCCCCCCCCCCC(=O)N(CCCCCCCCC)CC(O)C(O)C(OC1OC(CO)C(O)C(O)C1O)C(O)CO` (centres undefined), for which the GI50 was inactive: 17 µM.

Turning to `O=[N+]([O-])/C=C/c1ccc(Cl)cc1Cl`, the GI50 was inactive: 16.4 µM.

As for `CC(=O)Nc1ccc(C2CC(c3ccc([N+](=O)[O-])cc3)=Nc3ccccc3S2)cc1` (centres undefined), the GI50 was inactive: 34.2 µM.

As to `CCOC(=O)c1c[nH]c2cc3c(cc2c1=O)CCS3`, the GI50 is inactive: > 100 µM.

Take `Cn1cc(C(=O)C[n+]2ccccc2)c2ccccc21`: the GI50 is inactive: > 100 µM.

On to `C/C(=C\CBr)CCC(Br)C(C)(C)Br` (centres undefined), for which the GI50 was inactive: > 100 µM.

In the case of `Cc1nn(C(=O)c2ccccc2O)c2c1C(c1ccc3ccccc3c1O)SC(=N)N2` (centres undefined), the GI50 is inactive: 7.78 µM.

`Cc1cccc2c1CC(Cc1ccccc1C(=O)O)C2=O` (centres undefined): the GI50 is inactive: > 100 µM.

For the molecule `CC1C2(C)OC(=N)C(C#N)(C(c3ccccc3)O2)C1(C#N)C#N` (centres undefined), the GI50 was inactive: 72.1 µM.

As for `COC(=O)c1csc(-c2nc(CCNC(=O)OC(C)(C)C)sc2Br)n1`, the GI50 is inactive: > 100 µM.

For the molecule `CC(=O)NC1C(OCc2ccccc2)OC(COC(=O)CCCCCCCCCCNC(=O)c2cccc3c(=O)c4ccccc4[nH]c23)C(O)C1OC(C)C(=O)NC(C)C(=O)NC(CCC(N)=O)C(N)=O` (centres undefined), the GI50 was inactive: > 100 µM.

As to `CCOP(=O)(OCC)Oc1c(OC)c2[nH]c(C(=O)OC)cc2c2c(C(=O)O)c[nH]c12`, the GI50 was inactive: > 100 µM.

With `C/C(=N\NC(=S)NC1CCCC1)c1ccccn1`, the GI50 was active: < 0.02 µM.

With `COc1ccc(/C=C/C(=O)c2c(-c3ccccc3)nn(C)c(=O)c2N2CC2C)cc1` (centres undefined), the GI50 was inactive: 34.4 µM.

With `CC(=O)Oc1cc(OC(C)=O)c2c(c1C)CC[C@@H]1[C@@H]2CC[C@]2(C)[C@@H](OC(C)=O)CC[C@@H]12`, the GI50 is inactive: 16.8 µM.

Consider `O=C1[C@H]2ON(c3ccccc3)C(c3ccco3)[C@H]2C(=O)N1c1ccc(Cc2ccc(N3C(=O)[C@@H]4ON(c5ccccc5)C(c5ccco5)[C@@H]4C3=O)cc2)cc1` (some centres undefined), for which the GI50 is inactive: > 100 µM.

Turning to `O=C1CCCCC1CN1CCCCC1` (centres undefined), the GI50 was inactive: > 100 µM.

In the case of `NC(CCCC(N)P(=O)(O)O)C(=O)O` (centres undefined), the GI50 was inactive: > 100 µM.

With `Cc1cn(C2CC(n3cc(Cn4cc(I)c(=O)[nH]c4=O)nn3)C(CO)O2)c(=O)[nH]c1=O` (centres undefined), the GI50 was inactive: > 100 µM.

For the molecule `CC1(C)OCC=CCO1`, the GI50 was inactive: > 100 µM.

Turning to `CCCN(CCc1ccc(-c2ccccc2)cc1)CCc1ccc2nn[nH]c2c1`, the GI50 is inactive: 11.6 µM.

For the molecule `COc1cccc(NCC(=O)Nn2c(-c3ccccc3)nc3ccccc3c2=O)c1`, the GI50 was inactive: > 100 µM.

For `OCC(O)C(O)C(O)C(/C=N\Nc1ncnc2c(Br)cc(Br)cc12)=N/Nc1ncnc2c(Br)cc(Br)cc12` (centres undefined), the GI50 was inactive: 5.61 µM and inactive: 4.38 µM.

Turning to `O=C(O)Cc1ccc(/N=N/c2c(O)c(C(=O)O)cc3ccccc23)cc1`, the GI50 was inactive: > 100 µM.

Regarding `CC(=O)C(=[N+]=[N-])C(=O)OC(C)(C)C#N`, the GI50 was inactive: > 10 µM.

As to `CN1CCc2cc3c4cc2C1Cc1ccc(cc1)Oc1cc(ccc1O)CC1c2c(cc(O)c(c2O4)O3)CCN1C` (centres undefined), the GI50 is inactive: 2.26 µM.

Take `COc1ccc(C(=O)Nc2ccc(S(=O)(=O)NCC(=O)O)cc2)cc1`: the GI50 is inactive: > 100 µM.

In the case of `Clc1cc(OC23CC4CC(CC(C4)C2)C3)nc(Cl)n1`, the GI50 is inactive: 50.7 µM.

Take `CN(C)/C=C/c1nnc([N+](=O)[O-])s1`: the GI50 was inactive: 22.8 µM.

`CCCNC(=O)Cn1c(C)cc2ccccc21`: the GI50 is inactive: > 100 µM.

Regarding `NC1(C(=O)O)CCCC1C(=O)O` (centres undefined), the GI50 is inactive: > 100 µM.

`O=S(=O)(O)c1cc(/N=N/c2c(O)ccc3ccccc23)cc2c(S(=O)(=O)O)cccc12`: the GI50 is inactive: > 100 µM.

`Cc1cn(C2CC(Br)C(COC(c3ccccc3)(c3ccccc3)c3ccccc3)O2)c(=O)[nH]c1=O` (centres undefined): the GI50 was inactive: 14.1 µM.

Consider `O=C(N/C(=C/c1cccc([N+](=O)[O-])c1)c1nc2cc(Cl)ccc2[nH]1)c1ccccc1`, for which the GI50 is inactive: 16.4 µM.

Consider `CC(C)(CN1CCCCC1)C(=O)CC(SCCN)c1ccc(Cl)cc1` (centres undefined), for which the GI50 is inactive: 1.99 µM.

`OCc1cc2c(cn1)[nH]c1ccc(NCc3ccccc3)cc12`: the GI50 was inactive: 23.7 µM.

Regarding `O=[N+]([O-])c1cccc2c1[nH]c1c(-c3ccccc3)nccc12`, the GI50 was inactive: 2.21 µM.

As for `CC(=N\N=C\c1ccccn1)/C(C)=N/N=C(C)/C(C)=N/N=C/c1ccccn1`, the GI50 was inactive: > 100 µM.

As to `COC1CC(n2cnc3c(N)ncnc32)OC1CO` (centres undefined), the GI50 was inactive: > 100 µM.

As for `CCOC(=O)C(C(=O)c1ccccc1)=C1NCCN1`, the GI50 was inactive: > 100 µM.

For `COc1nc(O)nc2c1C(c1ccc([N+](=O)[O-])cc1)c1c(OC)nc(O)nc1O2`, the GI50 is inactive: > 100 µM.

Take `CC(C)OC(=O)NNc1cc(Cl)ccc1Cl`: the GI50 is inactive: 36.2 µM.

For `O=C1c2ccccc2N2OC3C4CCC(C4)C3C12c1ccccc1` (centres undefined), the GI50 was inactive: > 100 µM.

Consider `O=C1CCC2(c3ccc(Cl)cc3)Nc3ccncc3N12` (centres undefined), for which the GI50 is inactive: > 10 µM.

On to `COS(=O)(=O)OCCC(NC(=O)OCc1ccccc1)C(=O)OCc1ccccc1` (centres undefined), for which the GI50 is inactive: > 100 µM.

For `c1ccc(SCCP(CCP(c2ccccc2)c2ccccc2)c2ccccc2)cc1` (centres undefined), the GI50 is inactive: 24.9 µM.

Turning to `CC(=O)CC(O)(C(F)(F)Cl)C(F)(Cl)Cl` (centres undefined), the GI50 is inactive: > 10 µM.

As for `Nc1nc2c(ncn2CC(CO)CC(c2ccccc2)P(=O)(O)O)c(=O)[nH]1` (centres undefined), the GI50 is inactive: > 100 µM.

Consider `O=C(O)c1ccccc1CC(Cc1ccccc1)C(=O)O` (centres undefined), for which the GI50 was inactive: > 100 µM.

Consider `O=C(O)CC(NC(=O)CP(=O)(O)O)C(=O)O` (centres undefined), for which the GI50 was inactive: 6950 µM.

As for `O=S(O)CCCCSSCc1ccccc1CSSCCCCS(=O)O`, the GI50 was inactive: 36.7 µM.

For `COC(C(=O)NCCCCNC(=O)C(OC)c1ccccc1)c1ccccc1` (centres undefined), the GI50 was inactive: > 100 µM.

As for `O=c1c(C(c2ccc(O)cc2)c2c(O)oc3ccccc3c2=O)c(O)oc2ccccc12`, the GI50 is inactive: > 100 µM.

Turning to `COc1cc2c(cc1C)NC(=O)/C2=C/c1c(Cl)n(-c2ccccc2)c2ccccc12`, the GI50 is inactive: 34.4 µM.

For the molecule `O=[N+]([O-])c1ccccc1S(=O)(=O)c1ccccc1[N+](=O)[O-]`, the GI50 is inactive: > 100 µM.

For `CCCCCCCCCC[C@@H](O)[C@H]1CC[C@@H]([C@H]2CC[C@H]([C@H](O)CCCCCCCCCC[C@@H]3CC(CC(C)=O)C(=O)O3)O2)O1` (some centres undefined), the GI50 is inactive: 23 µM.

Turning to `Cc1cc(C)c2c(O)cc(-c3ccc(Cl)cc3)nc2n1`, the GI50 was inactive: 48.8 µM.
